# From patent publication US20250235531A1, “MUCOSAL ADMI[…] AND FORMULATIONS” (priority 2022, published 2025)
# System: HeLa cells
# Test: Luciferase protein expression assay in HeLa cells (ONE-Glo)
# Details: LNPs encapsulating Luciferase mRNA 25 ng per well, N=4, 5 h transfection, read after 24 h
# Method: Lipid nanoparticle compositions were prepared in a manner analogous to that in Example 27. To evaluate LNP cellular uptake and protein expression in vitro, HeLa cells from ATCC.org (ATCC CCL-2) are used. The cells are cultured in complete Minimum Essential Medium (MEM) and are plated in 96 well Cell Carrier Ultra plate with PDL coated surface (PerkinElmer) prior to running an experiment.
# Cells were transfected with buffer control (PBS) or LNPs encapsulating Luciferase mRNA (25 ng per well; N=4 replicate wells) in serum-free MEM media. LNP transfected cells were incubated for 5 h, followed by media removal and supplementation with complete MEM media. Cells were further incubated in complete MEM media overnight (24 h). Following the 24 hr incubation, luciferase protein expression was measured using the ONE-Glo™ Luciferase Assay (Promega). Cells were lysed using 1× Passive Lysis Buffer (Cat. #E194A) for 10 min in a microplate mixer at room temperature. Luciferase in the supernatant was measured by adding Luciferase Assay Reagent (Cat. #E151A) containing luciferin. Bioluminescence was then immediately measured on a Synergy H1 plate reader (BioTek). The results shown in Table 27 show the Average Relative Light Units (RLU) of each sample tested.
row,Compound,Average Relative Light Units ± Standard Deviation
1,"CC[C@H](CC[C@@H](C)[C@H]1CC[C@H]2[C@@H]3CC=C4C[C@@H](OC(=O)N(CCCCNCCC(C)N)CCC(C)N)CC[C@]4(C)[C@H]3CC[C@]12C)C(C)C.Cl.Cl.Cl (stereo partly drawn) [SA111, (3S,8S,9S,10R,13R,14S,17R)-17-((2R,5R)-5-ethyl-6-methylheptan-2-yl)-10,13-dimethyl-2,3,4,7,8,9,10,11,12,13,14,15,16,17-tetradecahydro-1H-cyclopenta[a]phenanthren-3-yl (3-aminobutyl)(4-((3-aminobutyl)amino)butyl)carbamate trihydrochloride]",26647.6 ± 9522.1 Relative Light Units
2,"CC[C@H](CC[C@@H](C)[C@H]1CC[C@H]2[C@@H]3CC=C4C[C@@H](OC(=O)N(CCC5CC(N)C5)CCC5CC(N)C5)CC[C@]4(C)[C@H]3CC[C@]12C)C(C)C.Cl.Cl (stereo partly drawn) [SA186, (3S,8S,9S,10R,13R,14S,17R)-17-((2R,5R)-5-ethyl-6-methylheptan-2-yl)-10,13-dimethyl-2,3,4,7,8,9,10,11,12,13,14,15,16,17-tetradecahydro-1H-cyclopenta[a]phenanthren-3-yl bis(2-(3-aminocyclobutyl)ethyl)carbamate dihydrochloride]",39332.2 ± 8317.2 Relative Light Units
3,"CC[C@H](CC[C@@H](C)[C@H]1CC[C@H]2[C@@H]3CC=C4C[C@@H](SSCCC(=O)N(CCC5CC(N)C5)CCC5CC(N)C5)CC[C@]4(C)[C@H]3CC[C@]12C)C(C)C.Cl.Cl (stereo partly drawn) [SA187, N,N-bis(2-(3-aminocyclobutyl)ethyl)-3-(((3S,8S,9S,10R,13R,14S,17R)-17-((2R,5R)-5-ethyl-6-methylheptan-2-yl)-10,13-dimethyl-2,3,4,7,8,9,10,11,12,13,14,15,16,17-tetradecahydro-1H-cyclopenta[a]phenanthren-3-yl)disulfaneyl)propanamide dihydrochloride]",23953.8 ± 3430 Relative Light Units
4,"CC(C)CCC[C@@H](C)[C@H]1CC[C@H]2[C@@H]3CC=C4C[C@@H](OC(=O)CCCC(=O)N(CCC5CC(N)C5)CCC5CC(N)C5)CC[C@]4(C)[C@H]3CC[C@]12C.Cl.Cl (stereo partly drawn) [SA188, (3S,8S,9S,10R,13R,14S,17R)-10,13-dimethyl-17-((R)-6-methylheptan-2-yl)-2,3,4,7,8,9,10,11,12,13,14,15,16,17-tetradecahydro-1H-cyclopenta[a]phenanthren-3-yl 5-(bis(2-(3-aminocyclobutyl)ethyl)amino)-5-oxopentanoate dihydrochloride]",19740.5 ± 4837 Relative Light Units
5,"CC[C@H](CC[C@@H](C)[C@H]1CC[C@H]2[C@@H]3CC=C4C[C@@H](OC(=O)N(CC56CC(N)(C5)C6)CC56CC(N)(C5)C6)CC[C@]4(C)[C@H]3CC[C@]12C)C(C)C.Cl.Cl [SA189, (3S,8S,9S,10R,13R,14S,17R)-17-((2R,5R)-5-ethyl-6-methylheptan-2-yl)-10,13-dimethyl-2,3,4,7,8,9,10,11,12,13,14,15,16,17-tetradecahydro-1H-cyclopenta[a]phenanthren-3-yl bis((3-aminobicyclo[1.1.1]pentan-1-yl)methyl)carbamate dihydrochloride]",386 ± 44.3 Relative Light Units
